Structures are written as SMILES. Whole data set: some 110,000 compounds, median “z-score” near -0.1, cut for the highest 2% near 2. The list shows a part of the results.

In this experiment the target is Metabotropic glutamate receptor 8 (Rattus norvegicus) (UniProt P70579). Kind of experiment: rat mGluR8 modulators via GIRK flux, primary screen, cell-based, thallium flux, HTS (AID 488969). The note with it: HEK293 rat mGluR8, GIRK (G protein-gated inwardly rectifying potassium channel) thallium flux, FluoZin2; at 10 µM; stronger effect = higher value; submaximal glutamate (EC20) added with thallium.
Sequence of UniProt P70579 (P70579 whole entry, looked up): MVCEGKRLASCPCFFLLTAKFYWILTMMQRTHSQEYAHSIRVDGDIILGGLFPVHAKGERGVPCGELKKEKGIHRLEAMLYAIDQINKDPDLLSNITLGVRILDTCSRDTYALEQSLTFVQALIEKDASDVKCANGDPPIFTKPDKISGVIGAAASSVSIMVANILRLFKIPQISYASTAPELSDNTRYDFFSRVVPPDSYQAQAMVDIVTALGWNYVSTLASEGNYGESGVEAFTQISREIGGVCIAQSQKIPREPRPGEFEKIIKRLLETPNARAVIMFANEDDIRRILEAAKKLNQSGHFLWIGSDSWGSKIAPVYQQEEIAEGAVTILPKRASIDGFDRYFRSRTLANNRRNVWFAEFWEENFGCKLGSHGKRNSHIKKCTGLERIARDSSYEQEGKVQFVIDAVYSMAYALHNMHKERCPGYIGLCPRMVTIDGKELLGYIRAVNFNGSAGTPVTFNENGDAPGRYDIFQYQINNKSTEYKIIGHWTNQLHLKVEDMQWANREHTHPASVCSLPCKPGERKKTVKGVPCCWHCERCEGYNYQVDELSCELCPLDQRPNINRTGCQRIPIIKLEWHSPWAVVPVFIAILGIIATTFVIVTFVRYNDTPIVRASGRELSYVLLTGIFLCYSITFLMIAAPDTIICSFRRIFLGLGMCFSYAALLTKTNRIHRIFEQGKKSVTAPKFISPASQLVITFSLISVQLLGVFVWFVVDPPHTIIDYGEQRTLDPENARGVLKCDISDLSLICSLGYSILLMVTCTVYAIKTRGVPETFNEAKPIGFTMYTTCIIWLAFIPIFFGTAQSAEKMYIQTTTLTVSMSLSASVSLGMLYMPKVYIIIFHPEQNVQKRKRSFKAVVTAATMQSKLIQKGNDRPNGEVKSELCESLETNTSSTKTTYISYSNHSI
In turn, `COc1cc2[nH]c3c(N4CCC(C(N)=O)CC4)ncnc3c2cc1OC` showed a z-score of -0.277.

Take `CCOC(=O)CSc1nnc(Cn2c(=O)sc3ccccc32)n1C`: the z-score was -0.398.

For the compound `Cc1nn(C)cc1C=NCCOCc1ccccc1`, the z-score came to 0.215. Then `COc1cc(N2CCCC2)c(OC)cc1/C=C(/C#N)c1cccc(Br)c1`, with -0.124. To `CCCN(CCO)CCCc1ccccc1` belongs 0.109; to `CC(C)(C)NC(=O)C1CCN(S(=O)(=O)c2ccc(Br)cc2)CC1`, -0.0702. Then `CCOC(=O)c1nc2cc3n(c(C)c-2c1C)C(C)C(C)=C3C` (configuration not stated), with -0.0669. On to `Cc1ccccc1-n1nnnc1SCC(N)=O`, for which the z-score came out at 0.269.

In the case of `CCn1c2ccccc2c2nnc(SCC(=O)OCN3C(=O)c4ccccc4C3=O)nc21`, the z-score is -0.087.

`CC(=O)c1sc(Nc2nc(C)cc(C)n2)nc1C` showed a z-score of -0.0137. Then `Cn1c(=O)c2c(-c3ccc(C(C)(C)C)cc3)n(CC3CCCO3)cc2n(C)c1=O` (configuration not stated), with -0.395. To `CCOC(=O)Cc1csc(SCC(=O)N2CCN(c3ccc(OC)cc3)CC2)n1` belongs 0.248; to `COc1cc(/C=N/NC(=O)Cn2nc([N+](=O)[O-])cc2C)cc(Br)c1OCc1ccccc1`, 0.716; to `Nn1c(SCC(=O)Nc2ccc3c(c2)OCCO3)nnc1-c1ccccn1`, -0.0196.

In the case of `COc1cc(CNc2ccc(O)cc2)cc(Br)c1OCc1ccccc1F`, the z-score is -0.906. Then `CCc1ccc(OCCCC(=O)Nc2ccc(N3CCCCC3)cc2)cc1`, with -0.107; and `CC(O)c1cccc(NC2=CC(=O)CC(C)(C)C2)c1` (configuration not stated), with 0.0574. `O=C(Nc1ccc(Oc2cccnc2)cc1)c1ccccc1F` yielded a z-score of -0.151.

On to `O=C(/C=C/c1ccc(N2CCCCC2)c([N+](=O)[O-])c1)c1ccc(S(=O)(=O)N2CCCC2)cc1`, for which the z-score is 0.456.

`O=C(OCCN1C(=O)c2cccc3c(N4CCOCC4)ccc(c23)C1=O)c1ccc(Cl)cc1Cl` yielded a z-score of -0.884. To `COc1ccc(OC)c(N2C(=O)CC(Cc3ccc(Cl)cc3)C2=O)c1` (configuration not stated) belongs 0.431; to `COC(=O)c1sccc1N/N=C/c1cccc(OC)c1O`, -0.0285.

Take `CC1C/C(=N/O)C(C)CN1` (configuration not stated): the z-score stood at 0.186.

With `CC(C)CNC(=O)c1ccccc1-c1ccccc1C(=O)O`, the z-score was -0.34. On to `Cc1ccc(-c2csc(NC(=O)CSc3ncn(-c4ccccc4)n3)n2)cc1`, for which the z-score is -0.309. Then `COc1ccc(C2N(c3ccccc3)C(=S)N3CCCN23)cc1` (configuration not stated), with -0.394; and `O=C(Nc1nc(COc2ccccc2)cs1)C12CC3CC(CC(C3)C1)C2`, with 0.035; and `COc1ccc(N/C(=N/c2nc(C)cc(C)n2)NC(=O)Nc2ccc(Cl)c(Cl)c2)c(OC)c1`, with -0.0467.

The compound `CCCCC(CC)COC1(c2ccccc2)OC(=O)c2ccccc21` (configuration not stated) yielded a z-score of 0.744. To `Cc1ccc(C(=O)CSc2n[nH]c(-c3ccco3)n2)cc1C` belongs 0.0361; to `c1ccc(Cn2nnc(-c3ccccc3)n2)cc1`, -0.379. `O=C(Nc1cccc(Cl)c1)c1ccc(NCCCN2CCOCC2)c([N+](=O)[O-])c1` yielded a z-score of -0.0295.

Consider `CCOC(=O)Cc1csc(NC(=O)CSc2ccc(Br)cc2)n1`, for which the z-score is -0.121. In the case of `Cc1cc(C)nc(NC(N)=NC2CCCCC2)n1`, the z-score was 0.228.

The compound `CCn1nnnc1SCCSc1nnnn1CC` came in with a z-score of -0.12. To `O=C(CO/N=C/c1ccccc1Cl)N1CCCc2ccccc21` belongs -0.544. To `COC(=O)c1c(O)c2c([nH]c1=O)CCCC2` belongs -0.216; to `Cc1ccc2c(c1)C(=O)c1ccccc1CS2=O` (configuration not stated), -0.318; to `O=C(O)CCc1nn2c3ccccc3n(CC(=O)c3ccccc3)c2nc1=O`, 0.204. Then `Cc1cc2c(c(=O)n1CCCn1ccnc1)C(c1ccco1)C(C#N)=C(N)O2` (configuration not stated), with -0.409. Compound `COC(=O)c1ccc(C)c(NC(=O)C2COc3ccccc3O2)c1` (configuration not stated) showed a z-score of 0.298. To `CCCC(=O)Nc1cc(=O)[nH]c2ncnn12` belongs -0.498; to `Cc1cn(C2CC3OCC3O2)c(=O)[nH]c1=O` (configuration not stated), 0.237; to `COC(=O)CC(NS(=O)(=O)c1cccs1)c1cccc2ccccc12` (configuration not stated), -0.0688. To `O=C(NCc1nnc(SCc2ccccc2)n1-c1ccccc1)C12CC3CC(CC(C3)C1)C2` belongs -0.441; to `COc1cccc(Nc2n[nH]c(=S)s2)c1`, 0.629.

Consider `CCc1ccc(Oc2coc3cc(OCC(=O)Nc4cc(C)ccc4C)ccc3c2=O)cc1`, for which the z-score worked out at 0.0196. Then `CCOc1cc(CNCCO)cc(Br)c1OCc1cccs1`, with 0.398; and `N#Cc1c(Sc2ncc(C(F)(F)F)cc2Cl)nsc1C/C=N\OCc1c(F)cccc1Cl`, with 0.21. The compound `O=C(CNC(=O)c1ccccc1F)NC1CC1` returned a z-score of 1.03. In turn, `O=S1(=O)CC(NCc2ccccc2)C(Nc2ccccc2)C1` (configuration not stated) gave a z-score of 2.43.

The compound `CN(Cc1ccccc1)C(=O)CC(c1ccccc1)c1cc(Cl)ccc1O` (configuration not stated) gave a z-score of -0.0311.

Compound `CCCCN1CN=C(Nc2nc3ccccc3o2)NC1` came in with a z-score of -0.0247.

The compound `O=C(Nc1ccc2c(c1)OCO2)C(c1ccccc1)N1CCCCC1` (configuration not stated) showed a z-score of 0.343.

Regarding `O=C(NNC(=O)c1ccc(SCC2CCCO2)c([N+](=O)[O-])c1)c1ccc(F)cc1` (configuration not stated), the z-score was -0.137.

`CCC1=Nc2cc(C(=O)NCCCOC(C)C)ccc2Sc2ccccc21`: the z-score was -0.637. Then `O=C(Nc1ccc(-n2ccnc2P(=O)(O)c2ccccc2)cc1)c1ccccc1Cl`, with 0.472; and `Cc1ccc(C2CC(=O)NC(SCc3ccccc3)=C2C#N)o1` (configuration not stated), with -0.0432. To `Cn1c(COc2ccc(Cl)cc2)nnc1SCC(=O)Nc1ccc2c(c1)CCC2` belongs -0.21; to `CCOP(=O)(OCC)c1nc(-c2cccc3ccccc23)oc1NCc1ccccc1`, -0.00118. To `Cc1nc(Cl)c(C(=O)NC(=O)NCc2ccccc2)c(C)c1Cl` belongs -0.0876; to `CC(=O)N1CCN(Cc2nc3cc(NC(=O)c4ccccc4)ccc3n2C)CC1`, -0.376. Consider `C/C(=N\NC(=O)c1ccccn1)C12CC3CC(CC(C3)C1)C2`, for which the z-score was -0.4.

`COc1ccccc1NC(=O)C1CCCN(c2cc(C)nc3ncnn23)C1` (configuration not stated) displayed a z-score of -0.278. To `C=CCn1c(SCC(=O)Nc2cccc3ccccc23)nc(O)c(CC)c1=O` belongs 0.276; to `CC(C)COc1ccc(C(=O)OCCN2CCOCC2)c(O)c1`, -0.152. Then `COCC(C)n1c(C)cc(C(=O)COC(=O)c2oc3ccccc3c2C)c1C` (configuration not stated), with -0.927; and `Cc1ccnc(SCC(=O)Nc2oc(-c3ccccc3)c(-c3ccccc3)c2C#N)n1`, with -0.39; and `CC(=O)NC1CCN(C(=O)N2CCCC2)CC1`, with 0.254. To `COc1ccccc1C(c1nnnn1C(C)(C)C)N1CCN(Cc2ccccc2)CC1` (configuration not stated) belongs 0.798; to `Cc1ccc(-c2noc(CCC(=O)N(C)c3ccccc3C)n2)cc1`, 0.361; to `CCn1cc(C2Nc3ccccc3C(=O)N2O)c(C)n1` (configuration not stated), 0.209. Compound `Cc1cc(OCCOc2cccc3cccnc23)c(C)cc1Cl` showed a z-score of -0.0542. Consider `Cc1ccc(CNC(=O)c2cnccn2)cc1`, for which the z-score was -0.218.

`CC(=C/C(=O)O)/C=C/c1ccc([N+](=O)[O-])cc1` came in with a z-score of -0.0461. To `C=CCNC(=O)CSc1nnc(-c2ccccc2Cl)n1-c1c(C)n(C)n(-c2ccccc2)c1=O` belongs 0.999; to `Cc1ccc(CNC(=O)CN(Cc2ccccc2)S(C)(=O)=O)cc1`, -0.457.

In turn, `CC(=O)Nc1cccc(-c2cnc3ccccc3n2)c1` displayed a z-score of -0.141. Compound `CC(C)c1ccc(O)c(NC(=O)c2cccnc2)c1` showed a z-score of -1.43.

In turn, `CCOCCCNCc1cc(Br)ccc1OCc1ccccc1` showed a z-score of 0.116. Take `COc1ccc2nc(NC(=O)CSc3nnnn3C3CCCCC3)sc2c1`: the z-score was -0.0705. On to `CCOC(=O)/C(=C\c1ccc(Cl)cc1)c1nc2sc(C)c(C)c2c(=O)[nH]1`, for which the z-score is -0.0812. Then `Cc1nc2c(-c3ccc(F)cc3)c(C)nn2c(C)c1CCC(=O)N1CCN(c2ccc(F)cc2)CC1`, with 0.733. To `Cc1ccc(-c2nnn(CCC(=O)NC(C)(C)C)n2)cc1` belongs -0.0528; to `CCOc1ccccc1Nc1nnc(SCC(=O)NC(=O)c2cccn2C)s1`, -0.284. Then `COc1ccc(CCNC(=O)c2oc3ccc(S(=O)(=O)N4CCOCC4)cc3c2C)cc1OC`, with -0.221; and `CCOC(=O)Nc1cc(=O)c2ccccc2o1`, with 0.0608.

As to `NC(=O)c1cc2cc(Br)ccc2oc1=NCc1ccccc1`, the z-score stood at 0.462. Then `COc1ccc(O)c(/C=N/Nc2nc(Nc3ccccc3)nc(-n3nc(C)cc3C)n2)c1`, with -0.106. To `CCOc1ccc(C)cc1S(=O)(=O)Nc1cccnc1` belongs -0.228. Then `C[C@@]12CC(=O)NC1N(C(=O)c1ccccc1)C(c1ccccc1OC(=O)c1ccccc1)C2` (some centres not stated), with -0.261. Compound `O=C(NC(NC(=S)Nc1ccc(Cl)cc1)C(Cl)(Cl)Cl)c1ccco1` (configuration not stated) returned a z-score of 0.844. To `COc1ccc(N2CCN(CC(=O)Nc3ccc(-n4cnnn4)cc3)CC2)cc1` belongs 1.05. To `Cc1ccc(CSc2nc3c(c(SCC(=O)O)n2)CCCC3)cc1` belongs -0.276; to `Cc1nn(Cc2cccc(C(=O)Nc3ccn(Cc4ccccc4)n3)c2)c(C)c1[N+](=O)[O-]`, -0.197; to `CCOC(=O)C1CCCN(Cc2nc(N)nc(Nc3ccc(C)cc3)n2)C1` (configuration not stated), -1.02.

`COC(=O)C(CC(C)C)NC(=O)c1ccc([N+](=O)[O-])cc1` (configuration not stated): the z-score was determined as 2.03. `FC(F)(F)c1ccccc1NC(=S)N1CCN(c2ncccn2)CC1` displayed a z-score of -0.0651. To `COC(=O)c1ccc(N2Cc3ccccc3/C2=N\C(=O)Nc2ccccc2)cc1` belongs 0.479; to `Cc1c(NC(=O)CCSc2ccc(Cl)cc2)c(=O)n(-c2ccccc2)n1C`, 0.0518; to `C/C(=N\NC(=O)C1CC1c1ccccc1)c1cccs1` (configuration not stated), -0.366. To `O=C(O)C1C2CCC(C2)C1C(=O)NCc1ccco1` (configuration not stated) belongs -0.268; to `CSc1nsc(SCc2cnc(C)nc2N)n1`, -0.0122. To `COc1cc(NC(=O)c2cc3ccccc3o2)c(OC)cc1Br` belongs -0.191; to `O=C(c1ccc(CS(=O)(=O)c2ccc(Br)cc2)o1)N1CCN(c2ccccn2)CC1`, -0.169; to `Clc1ccc(-c2nnc3sc(Cc4cccs4)nn23)c(Cl)c1`, -0.542. For `Cc1cccc(C(CC(=O)N2CCCC2)c2ccccc2)c1O` (configuration not stated), the z-score is -0.619.

On to `CSc1ncc(Cl)c(C(=O)Nc2nnc(SC)s2)n1`, for which the z-score was -0.194. Then `COc1cc2c(cc1NC(=O)COC(=O)[C@@H](NC(=O)c1ccccc1F)C(C)C)oc1ccccc12`, with -0.258; and `C/C(=N\NC(=O)c1c(Cl)c(C)nn1C)c1cccc(NC(=O)COc2ccc(Cl)cc2)c1`, with -0.136. Then `CC(=O)N(CC1CCCO1)c1nnc(-c2ccccn2)s1` (configuration not stated), with -0.016; and `O=C1C2CC=CCC2C(=O)N1c1cccc(OS(=O)(=O)c2ccc3ccccc3c2)c1` (configuration not stated), with 0.0335.

(Values after PubChem BioAssay AID488969 (Vanderbilt High Throughput Screening Facility, 2010).)
